In PubChem BioAssay AID624418 (National Center for Advancing Translational Sciences (NCATS), 2012):
In all, about 410,000 compounds went through this assay and about 530 (0.13%) were called active. The shares of active, inactive and inconclusive entries below differ from those in the screen. The call rests on the fitted dose curve; in most records, active means well fitted inhibition curve with a large enough effect; inconclusive means small, poorly fitted or top-dose-only effect, or another doubt; inactive means no such curve, though single readings can be large or run the other way. Potencies of inconclusive entries are doubtful fits and often do not repeat.

test: qHTS of GLP-1 Receptor Inverse Agonists: Cytotox Screen; conditions: HEK293 cAMP-luciferase reporter cells, luminescence, 24 h; series mostly up to 38.3 µM
In short: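 Cells in DMEM/10% Nu serum/1% pen-strep, 1536-well format. Pre-incubated 12 h, dosed with 23 nL compound, incubated a further 24 h. Luciferase detection, 12 min at room temp, luminescence.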
Potency means the concentration at half of the fitted maximal effect.

Row | Structure (SMILES) | Potency
1 | COc1ccc(C2CC(c3ccc(Br)cc3)=NN2C(=O)CN2CCCC2)cc1 (stereo not given) | inconclusive: 12.6 µM [inhibitor, single point]
2 | Cc1cc(NC(=O)CSc2nnc(-c3ccc(O)cc3)o2)no1 | inconclusive: 7.94 µM [inhibitor, partial curve, poor fit]
3 | COc1cc(NC(=O)c2csc(N)n2)cc(C(=O)Nc2cccc(C(F)(F)F)c2)c1 | inconclusive: 7.94 µM [inhibitor, partial curve, poor fit]
4 | CCCOc1ccc(-c2c(C(=O)N/N=C/c3ccc(OC)cc3)nnn2-c2nonc2N)cc1 | inconclusive: 31.6 µM [inhibitor, partial curve, poor fit]
5 | CC(=O)Nc1ccc(C(=O)COC(=O)c2c(C)noc2C)c(F)c1 | inactive
6 | O=C(Nc1ccccc1)C1=C(c2ccccc2)S(=O)(=O)CCS1(=O)=O | inconclusive: 2.82 µM [inhibitor, full curve]
7 | O=C(CSc1nc(-c2ccccc2)c(-c2ccccc2)[nH]1)NCCN1C(=O)CSC1=O | inconclusive: 6.31 µM [inhibitor, partial curve, poor fit]
8 | CCOC(=O)c1sc(NC(=O)c2cc(-c3ccccc3C)nc3ccccc23)c(C#N)c1C | inconclusive: 2.24 µM [inhibitor, full curve, poor fit]
9 | C=CCc1cccc(/C=N/NC(=O)CNc2cccc3ccccc23)c1O | inconclusive: 8.91 µM [inhibitor, partial curve, poor fit]
10 | CCOC(=O)C(NCCc1ccccc1)(NC(C)=O)C(F)(F)F (stereo not given) | inconclusive: 4.47 µM [inhibitor, full curve, poor fit]
11 | Nc1cc(=O)[nH]n1C1CCCCC1 | inactive
12 | CCOc1ccccc1C1CC(=O)Nc2c1c(=O)n(C)c1ncnn21 (stereo not given) | inactive
13 | Oc1ccc2ccccc2c1N=Nc1ccccc1F | inactive
14 | CC1CCC(NC(=O)C(=O)Nc2ccc3c(c2)OCO3)CC1 (stereo not given) | inactive
15 | CN(C)c1ccc(/C=C(\C#N)c2ccccc2)cc1 | inconclusive: 1.26 µM [inhibitor, full curve, poor fit]
16 | CCc1ccccc1NC(=O)CN(C)C(=O)Cn1ncc(Cl)c(Cl)c1=O | inconclusive: 12.6 µM [inhibitor, single point]
17 | Cc1ccccc1OCC(=O)NNC(=S)NC(=O)c1ccco1 | inactive
18 | CCCCN(CC)CCCNC(=O)c1c(C)oc2ncnc(N3CCOCC3)c12 | inactive
19 | CN1CCCC(CC2Oc3ccccc3Sc3ccccc32)C1 (stereo not given) | inconclusive: 28.2 µM [inhibitor, single point]
20 | O=C(N/N=C/c1ccccn1)c1ccc([N+](=O)[O-])cc1Cl | inconclusive: 11.2 µM [inhibitor, single point]
21 | C=CCNC(=S)N/N=C/c1ccc(-c2cc(Cl)ccc2Cl)o1 | inactive
22 | CCn1cc(/C=C(\NC(=O)c2ccc(OC)cc2)C(=O)NCCCn2ccnc2)c2ccccc21 | inconclusive: 4.47 µM [inhibitor, full curve, poor fit]
23 | O=C(NNC(=O)c1ccccc1Cl)c1cccs1 | inactive

Row | Structure (SMILES) | Potency
24 | O=C(Nc1ncc(Br)s1)C(Cc1ccccc1)n1cccc1 (stereo not given) | inconclusive: 12.6 µM [inhibitor, single point]
25 | CN(C)c1ccc(/C=C2/C[N+](C)(C)C/C(=C/c3ccc(N(C)C)cc3)C2=O)cc1 | active: 8.91 µM
26 | Cc1c(C#N)c(NC(=O)CCl)n(Cc2cccs2)c1C | inconclusive: 7.94 µM [inhibitor, partial curve, poor fit]
27 | CCCCCC(O)(c1ccc(OC)cc1)C(CN1CCOCC1)c1ccccc1 (stereo not given) | inconclusive: 11.2 µM [inhibitor, single point]
28 | O=[N+]([O-])c1ccc(Cl)c2cccnc12 | inconclusive: 12.6 µM [inhibitor, single point]
29 | COc1ccc(CCNC(=O)CCc2c(C)nc3c4c(C)cc(C)nc4nn3c2C)cc1OC | inactive
30 | Cc1nc2ccccc2c(=O)n1/N=C/c1cn(-c2ccccc2)nc1-c1cccs1 | inconclusive: 10 µM [inhibitor, single point]
31 | Cc1ccccc1N1CCN(C(=O)c2cc(-c3ccccc3)nc3c2cnn3C(C)C)CC1 | inactive
32 | C=CCSc1nc2ccccc2n1C(=O)/C=C/c1cc(OC)c(OC)c(OC)c1 | inconclusive: 3.55 µM [inhibitor, full curve, poor fit]
33 | O=C(NNc1ccc(-c2csnn2)cc1)c1ccccc1C(F)(F)F | inconclusive: 12.6 µM [inhibitor, single point]
34 | C=CCNC(=S)N/N=C/c1ccc(C(F)(F)F)cc1 | inconclusive: 31.6 µM [inhibitor, partial curve, poor fit]
35 | CCn1c2ccccc2c2cc(C#N)c(N)nc21 | inactive
36 | COc1ccccc1OCC(=O)Nc1ccc(O)cc1C(=O)O | inactive
37 | CC1Cc2ccccc2N1C(=S)NC(=O)c1ccc(Cl)cc1Cl (stereo not given) | inconclusive: 20 µM [inhibitor, single point]
38 | Cc1ccc(N2C(=O)[C@@H]3[C@H](C2=O)C2CCCN2[C@@H]3C(=O)c2ccccc2)cc1 (stereo not given in full) | inconclusive: 10 µM [inhibitor, single point]
39 | COc1cccc(CNc2cnc3ccccc3c2)c1O | inactive
40 | CCNS(=O)(=O)c1ccc(NC(=O)CSc2nc(-c3ccco3)cc(C(F)(F)F)n2)cc1 | inconclusive: 10 µM [inhibitor, partial curve, poor fit]
41 | Cc1cccc(NC(=S)c2nc3ccccc3s2)c1 | inconclusive: 2.51 µM [inhibitor, partial curve, poor fit]
42 | Oc1ccc(C=NNc2ccccn2)c(O)c1 | inconclusive: 14.1 µM [inhibitor, partial curve, poor fit]
43 | CCCC(=O)NC1=C(Cl)C(=O)c2ccccc2C1=O | inconclusive: 28.2 µM [inhibitor, single point]
44 | Cc1c(C#N)c(O)[nH]c(=O)c1N=Nc1ccc(S(N)(=O)=O)cc1 | inconclusive: 22.4 µM [inhibitor, single point]
45 | Cc1cc(C(=O)CSc2nnc(-c3cccnc3)n2-c2ccccc2F)c(C)n1C | inconclusive: 14.1 µM [inhibitor, single point]
